# In all, about 45,000 compounds went through this assay and about 200 (0.44%) were called active. This list was built around the results that the source calls inconclusive (neither active nor inactive); the mix of calls is not that of the screen. The call rests on the fitted dose curve; in most records, active means well fitted activation curve with a large enough effect; inconclusive means small, poorly fitted or top-dose-only effect; inactive means no such curve, though single readings can be large or run the other way. Potencies beside an inconclusive call are fits to weak or partial responses and may not hold up.
# Assay: qHTS of TDP-43 Inhibitors: NCGC Sytravon Library Screen; further: nearly all actives have a fitted effect of over 55% in size; on growth rescue (activation): 0% is about no effect
# Details: yeast TDP-43 toxicity rescue, BacTiter-Glo growth, 24 h; growth rescue (activation): at 46.1 µM (top of the series)
# Summary of the method: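 TDP-43-expressing yeast, pregrown in raffinose, seeded at OD600 0.02 in galactose medium with compound for 24 hr at 30 deg C. Growth read by BacTiter-Glo luminescence, so rescue of toxicity appears as activation.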
# Potency means the concentration at half of the fitted maximal effect; tags describe the fitted curve by direction and shape.
Compound,Potency,growth rescue (activation)
CCOC(=O)COc1ccc2ccccc2c1/C=C/[N+](=O)[O-],"inconclusive: 3.55 µM [activator, full curve, poor fit]",
Cc1cc(NCc2ccccn2)n2ncc(-c3ccc(Cl)cc3)c2n1,"inconclusive: 5.62 µM [activator, partial curve]",
O=C(Nc1ccc2c(c1)OCO2)c1cc(C2CCCCN2C(=O)CCc2ccccc2)on1 (stereo unspecified),,inconclusive: 81% [activator]
COc1ccc(Cc2nc3c4cnn(-c5cccc(F)c5)c4ncn3n2)cc1,,inactive: 6.42%
CCCn1c(NC(=S)Nc2ccccc2)nc2ccccc21,"inconclusive: 3.16 µM [activator, full curve, poor fit]",
CC/C(=N\NC(=S)Nc1cc(C)ccc1C)c1ccc(OC(F)F)cc1,"inconclusive: 20 µM [activator, single point]",
Cc1ccc(Nc2c3c(nc4nncn24)CCC3)cc1,active: 12.6 µM,
O=C(NCc1ccc2c(c1)OCO2)c1ccc(N2CCCCCC2)c([N+](=O)[O-])c1,"inconclusive: 10 µM [activator, partial curve]",
COc1cc(-c2nc(-c3cccnc3)no2)cc(OC)c1OC,"inconclusive: 35.5 µM [activator, single point]",
CC1(C)CC2(CCO1)OC(=O)CC2C(=O)Nc1ccc(Br)cc1 (stereo unspecified),"inconclusive: 14.1 µM [activator, single point]",
CCN(CC)S(=O)(=O)c1ccc2c(c1)N(CC(=O)Nc1c(C)cccc1C)C(=O)CO2,,inactive: 3%
Oc1cccc(Oc2ncc(C(F)(F)F)cc2Cl)c1,"inconclusive: 15.8 µM [activator, partial curve, poor fit]",
COc1ccc(N(CCC(=O)O)S(=O)(=O)c2ccc(C)c(C)c2)cc1,"inconclusive: 12.6 µM [activator, single point]",
Cc1ccccc1CSc1ccc(S(=O)(=O)N2CCCC2)cn1,"inconclusive: 12.6 µM [activator, single point]",
Cc1cc(C(=O)CSc2ccccc2)cc(C)c1O,"inconclusive: 10 µM [activator, partial curve]",
COc1ccc(NC(=O)c2cccc(Oc3ccc([N+](=O)[O-])cc3Cl)c2)cc1,"inconclusive: 4.47 µM [activator, full curve]",
CC1=C/C(=C\c2ccc3c(c2)OCO3)C(=O)S1,"inconclusive: 35.5 µM [activator, single point]",
O=C(c1cc(C2CCCCN2S(=O)(=O)c2cccs2)on1)N1CCOCC1 (stereo unspecified),,inactive: 9.26%
O=C(Nc1ccc(F)c(Cl)c1)N1CCN(C(=O)c2nsc3ccccc23)CC1,,inactive: 19.9%
CCOc1ccc(/C=C/c2c([N+](=O)[O-])c(=O)n(C)c(=O)n2C)cc1,"inconclusive: 12.6 µM [activator, partial curve, poor fit]",
CC1(C(=O)Nc2cccc(C(F)(F)F)c2)Cc2c(-c3ccccc3)ccnc2O1 (stereo unspecified),"inconclusive: 15.8 µM [activator, partial curve, poor fit]",

Compound,Potency,growth rescue (activation)
Cc1ccc(NC(=O)c2ccccc2Br)c(C(=O)c2ccccc2)c1,"inconclusive: 15.8 µM [activator, partial curve, poor fit]",
O=C(/C=C/c1ccc(S(=O)(=O)NCc2ccco2)cc1)N1CCN(c2ccccc2)CC1,,inactive: 2.78%
CC1(C)Cc2c(c(N3CCOCC3)nc3sc4c(NCc5ccco5)nnnc4c23)CS1,"inconclusive: 28.2 µM [activator, single point]",
Cc1ccccc1-c1cc2nc(OCC3CCCO3)n(C)c(=O)c2s1 (stereo unspecified),,inconclusive: 44.1% [activator]
Clc1ccccc1Cn1c(/C=C/c2ccco2)nc2ccccc21,"inconclusive: 15.8 µM [activator, single point]",
CCCS(=O)(=O)NC(=O)C1(C)CCN(C(=O)c2cccnc2Oc2ccccc2)C1 (stereo unspecified),,inactive: -6.15%
C=CCc1cccc(/C=N/NC(=O)CNc2cccc3ccccc23)c1O,"inconclusive: 15.8 µM [activator, partial curve, poor fit]",
COc1cc(/C=N/O)ccc1OCc1ccc([N+](=O)[O-])cc1,"inconclusive: 8.91 µM [activator, partial curve, poor fit]",
O=C(NC(=S)NCc1ccccc1)c1ccc2c(c1)OCO2,"inconclusive: 17.8 µM [activator, partial curve, poor fit]",
COc1ccc(-c2csc(C(O)c3ccc(F)c(OC)c3)n2)cc1 (stereo unspecified),,inconclusive: 150% [activator]
O=C1CCC(=O)N1c1ccc(NCc2ccccc2Cl)c([N+](=O)[O-])c1,"inconclusive: 3.16 µM [activator, single point]",
C=CCNC(=O)/C(C#N)=C/c1c(C)nn(-c2ccccc2)c1Cl,"inconclusive: 31.6 µM [activator, single point]",
O=C(/C=C/c1ccc(Cl)cc1)N(c1ccccn1)C1CCCCC1,"inconclusive: 31.6 µM [activator, partial curve, poor fit]",
COCCN(C(=S)Nc1ccc(OC)cc1)C(C)c1cccs1 (stereo unspecified),"inconclusive: 17.8 µM [activator, partial curve, poor fit]",
Cc1cc(C(=O)N2CCN(c3ccccc3Cl)CC2)c(C)o1,"inconclusive: 17.8 µM [activator, single point]",
O=C(CCl)Nc1cn(-c2ccccc2)nc1-c1ccccc1,"inconclusive: 17.8 µM [activator, partial curve, poor fit]",
Cc1ccc(NCc2cccn2-c2nnc(N3CCC(C(=O)NCCc4ccc(Cl)cc4)CC3)s2)cc1,"inconclusive: 22.4 µM [activator, single point]",
O=C(/C=C/c1ccc(Cl)cc1)N1CCN(c2ccc(Cl)cc2[N+](=O)[O-])CC1,"inconclusive: 12.6 µM [activator, partial curve, poor fit]",
Cc1cc(Nc2ccccc2Cl)nc(-c2ccccc2O)n1,"inconclusive: 22.4 µM [activator, single point]",
O=C(Nc1ccc2c(c1)CCC2)c1cc(=O)[nH]c2ccccc12,"inconclusive: 35.5 µM [activator, single point]",

# Source: PubChem BioAssay AID1347073 (National Center for Advancing Translational Sciences (NCATS), 2019)
